Results from ChEMBL document CHEMBL1201862, “PubChem BioAssay data set” (2004).

The compounds below were run on NCI-H322M (assay: NCI tumour cell line growth inhibition, 48 h).

SMILES	GI50
Nc1ccn(C2CCC(CO)O2)c(=S)n1 (configuration not stated)	inactive: > 100 µM
Cc1ccc(-c2nnc(-c3ccc4ccccc4c3)o2)cc1	inactive: > 100 µM
COc1ccc(-c2nc(O)c3ccccc3n2)c(OC)c1	inactive: > 100 µM
COc1cc2cc3c4c(cc(OC)c(OC)c4c2cc1OC)CCN3C	inactive: 35.7 µM
COc1cccc2c1C1(O)C2CCCCCCCCCC12OCCCO2 (configuration not stated)	inactive: > 45.8 µM
O=[N+]([O-])c1cc2no[n+]([O-])c2cc1N1CCCCC1	inactive: 14.9 µM
CCC(=O)Nc1ncnc2ncn(C(=O)CC)c12	inactive: > 100 µM
COc1ccc(Oc2nc(C#CC(C)(C)O)nc(Oc3ccc(OC)cc3)n2)cc1	inactive: 16.3 µM
NCCC1CN(C(=O)OCc2ccccc2)c2ccccc21 (configuration not stated)	inactive: 18.7 µM
CC(C)=CCc1c(O)cc2oc(-c3ccc(O)cc3O)cc(=O)c2c1O	inactive: 33 µM
O=[N+]([O-])c1ccc(/C=C(/c2ccc([N+](=O)[O-])o2)S(=O)(=O)c2ccccc2)o1	inactive: 23.4 µM
CC1(C)C(C#N)C1C1=C(N2CCOCC2)[C@]2(C)C(OC(=O)c3ccccc3)CC[C@@H]2C1 (some centres not stated)	inactive: > 100 µM
Cc1ccc(C(=O)Nc2ccc(CP(=O)(O)O)cc2)cc1NC(=O)c1cccc(N)c1	inactive: > 100 µM
COC(=O)C(CCC#N)(CCC#N)C(=O)OC	inactive: > 100 µM
O=[N+]([O-])c1ccc(Cl)cc1C1SCc2nc3ccccc3n21 (configuration not stated)	inactive: 28.6 µM
C/C(=N\NC(=S)N1CC2CCC(CC2)C1)c1nccs1	active: 0.259 µM
S=C1CC(c2ccccc2)Sc2ccc(Cl)cc2N1 (configuration not stated)	inactive: 47.3 µM
c1ccc2c(c1)c1c(n2CCOCCN2CCCCC2)CCCC1	inactive: 15.3 µM
COc1cc2ccnc3c2c(c1OC)CC1CC(O)C(OC)CC31 (configuration not stated)	inactive: 84.7 µM
CNc1ncnc2c1cnn2CCCCO	inactive: > 100 µM
Cc1c(/C=N/NS(=O)(=O)c2ccccc2)no[n+]1[O-]	inactive: > 100 µM
O=C1/C(=C/c2ccc3c(c2)OCO3)SC2C=Nc3ccccc3N12 (configuration not stated)	inactive: > 100 µM
S=c1[nH]c2ccc(Br)cc2c(=S)n1-c1ccccc1	inactive: 17.8 µM

SMILES	GI50
O=C(O)/C=C\C(=O)Nn1c(Cc2ccc(Cl)cc2)n[nH]c1=O	inactive: > 100 µM
CC(Cn1c2c(c3cc(O)ccc31)CCc1ccc(O)cc1-2)N(C)C (configuration not stated)	inactive: 16.6 µM
CS(=O)(=O)CC1=Nc2nnc(CCCCCCCc3nnc4n3C(=O)C(CS(C)(=O)=O)=N4)n2C1=O	inactive: > 100 µM
CCOC(=O)Nc1nn[nH]c1Cl	inactive: > 100 µM
O=C1CSC(c2ccc([N+](=O)[O-])cc2)N1c1ccc(-c2ccc(-n3c(-c4ccccc4)nc4ccccc4c3=O)cc2)cc1 (configuration not stated)	inactive: > 100 µM
COc1cc2c(cc1OCCCC(=O)Nc1cc(C(=O)NCCCN(C)C)n(C)n1)N=CC1CCCN1C2=O (configuration not stated)	inactive: > 40.4 µM
COc1ccccc1C[C@@H]1OC2(C=CC(=O)C=C2)O[C@H]1Cc1ccccc1OC	inactive: 24.8 µM
Cn1c(O)c(C(=O)NC2CCCCC2)c(=O)n(C)c1=S	inactive: 7.48 µM
Cc1cc2c(cc1Cl)S(=O)(=O)OC(c1ccc([N+](=O)[O-])cc1)=N2	inactive: > 100 µM
CC(=O)OC1O[C@@H](C(C)(C)O)CC[C@@H]1[C@H]1CC[C@@]2(C)C3=C(CC[C@]12C)[C@@]1(C)C[C@@H](OC(=O)CC(C)(O)CC(=O)O)[C@H](OC(C)=O)C(C)(C)C1CC3 (some centres not stated)	inactive: 17.5 µM
CCSc1cc(=O)n(C)c(=O)n1C	inactive: > 100 µM
COc1cc(COC(=O)N2CSCC2C(=O)O)c([N+](=O)[O-])cc1OC (configuration not stated)	inactive: > 100 µM
c1ccc(-c2c(-c3[nH]c4ccccc4c3-c3ccccc3)[nH]c3ccccc23)cc1	inactive: 4.58 µM
OC1C2C=CCC1CCC2 (configuration not stated)	inactive: > 100 µM
c1cc2ccc1C1NCCCN1CCN1CCCNC1c1ccc(cc1)C1NCCCN1CCN1CCCNC21 (configuration not stated)	inactive: > 100 µM
CCOc1ccc(/N=N/c2c(-c3ccccc3)nn(C(=O)CC(=O)Nc3cccc(C)c3)c2-c2ccccc2)cc1	inactive: 88.7 µM
COC(=O)CCNC(=O)OCc1ccccc1	inactive: > 100 µM
O=C1CS(=O)(=O)C(c2cccc(Oc3ccccc3)c2)N1c1cccc(Cl)c1Cl (configuration not stated)	inactive: 75.2 µM
CCSC(=O)C1(C)OC2CCCCC2C1=O (configuration not stated)	inactive: > 100 µM
CC1=NNC(=O)C1C1CC(c2c[nH]c3ccccc23)=NN(c2ccccc2)C1=O (configuration not stated)	inactive: > 100 µM
C/C(=N\Nc1ccccc1)c1sc(-c2nc(C)c(/C(C)=N/Nc3ccccc3)s2)nc1C	inactive: 22.8 µM
Cc1cc(C)nc(NS(=O)(=O)c2ccc(Nc3c4ccc(Cl)cc4nc4c(C(=O)Nc5ccc(S(N)(=O)=O)cc5)cccc34)cc2)n1	inactive: 23.7 µM
Nc1nc(Cl)c(N)c(NCC2(CO)CCC(OCc3ccccc3)C2)n1 (configuration not stated)	inactive: > 100 µM

SMILES	GI50
C[S+]([O-])c1ccc(COP(N)(=O)N(CCCl)CCCl)cc1 (configuration not stated)	inactive: > 100 µM
CCOC(=O)COc1ccccc1/C=C1\CCC(CN(C)C)C1=O (configuration not stated)	inactive: 17.4 µM
S=C1/C(=N/c2ccccc2)N(C2CCCCC2)/C(=N\C2CCCCC2)N1c1ccccc1	inactive: > 100 µM
[N-]=[N+]=NC1=C(N=[N+]=[N-])c2cccc3cccc(c23)C1=O	inactive: > 100 µM
O=C1c2ccccc2CC12Cc1ccc3c(c1C2=O)CCCC3 (configuration not stated)	inactive: > 100 µM
CC(OC(C)(C)C)[C@H](NC(=O)OCC(Cl)(Cl)Cl)C(=O)O (some centres not stated)	inactive: > 100 µM
NS(=O)(=O)c1ccc(NC(=O)c2ccc3nc4ccccc4c(Nc4ccc(S(N)(=O)=O)cc4)c3c2)cc1	inactive: > 100 µM
NC(=S)N/N=C1\CCCC1C(O)(C(F)(F)Cl)C(F)(F)Cl (configuration not stated)	inactive: > 10 µM
C#CC(=O)OCC#CCOC(=O)C#C	inactive: > 100 µM
O=C1CC(c2cccc([N+](=O)[O-])c2)C2(C(=O)NC(=S)NC2=O)C(c2cccc([N+](=O)[O-])c2)C1 (configuration not stated)	inactive: 12.2 µM
O=C1CCC2(CC1CC(Sc1ccccc1)Sc1ccccc1)OCCO2 (configuration not stated)	inactive: 92.7 µM
COC1(CC[C@@H](C)COC2OC(CO)C(O)C(O)C2O)O[C@H]2C[C@H]3[C@@H]4CC=C5C[C@@H](OC6OC(CO)C(OC7OC(C)C(O)C(O)C7O)C(O)C6OC6OC(C)C(O)C(O)C6O)CC[C@]5(C)[C@H]4CC[C@]3(C)[C@H]2[C@@H]1C (some centres not stated)	inactive: 3.03 µM
CCN(CC)CCn1c(=O)c2ccccc2n2c3c(=O)n(C)c(=O)n(C)c3nc12	inactive: 2.54 µM
CC(=O)O[C@H]1[C@@H](N2CCCCC2)C[C@H]2[C@@H]3CC=C4C[C@@H](N5CCCC5)CC[C@]4(C)[C@H]3CC[C@@]21C	inactive: > 100 µM
Cc1ccc2c(ccc(/C=C\c3cc(C)c4cccnc4c3O)[n+]2C)c1	inactive: 15.6 µM
O=P(Oc1ccccc1)(Oc1ccccc1)Oc1c[nH]c2ccccc12	inactive: 16.1 µM
CC(=O)OCC1OC(N2C(=O)C(=O)c3cc(C)ccc32)C(OC(C)=O)C(OC(C)=O)C1OC(C)=O (configuration not stated)	inactive: > 100 µM
O=C1C(=C/C=C2/SC(c3ccccc3)(c3ccccc3)c3ccccc32)C(=O)c2ccccc21	inactive: > 100 µM
O=C(NC1C(=O)NNC1c1cccc([N+](=O)[O-])c1)c1ccccc1 (configuration not stated)	inactive: > 100 µM
CC(=O)C(C(=O)c1ccc(C)cc1)[C@@H]1OC(C)(C)O[C@@H]1[C@H]1COC(C)(C)O1 (some centres not stated)	inactive: 15.3 µM
C=CCN1COc2c(cc3c4c(cccc24)C(=O)O3)C1	inactive: 19 µM
CCCCNC(=S)N/C=C1\C(=O)Oc2ccccc2C1=O	inactive: 94 µM
C=CCc1c(C)nc(C)nc1N/N=C/C=C/c1ccccc1	inactive: 51.2 µM

SMILES	GI50
COC(=O)C1=Cc2cc(OC)c(O)cc2[C@@H](c2ccc(O)c(OC)c2)[C@@H]1C(=O)OC	inactive: > 100 µM
C#Cc1c(C)c(/C=C/C(C)=C/C(=O)OC)n(C)c1C	inactive: > 100 µM
COc1ccc2c3c1C(=O)CCCC3CO2 (configuration not stated)	inactive: > 100 µM
CCOC(=O)c1nc2ccc(OC)cc2c2c1Cc1ccccc1-2	inactive: > 100 µM
O=C(Nc1sccc1S(=O)(=O)c1ccc(Cl)cc1)C(F)(F)F	inactive: 23.5 µM
O=C(O)C/N=C(\C(=N\CC(=O)O)c1ccccc1)c1ccccc1	inactive: > 100 µM
NC(=S)N1N=C(c2ccc3c(c2)CCC3)CC1c1ccccc1 (configuration not stated)	inactive: 46.3 µM
C=CCC(CCC(C)=O)(C(=O)OCC)C(=O)OCC	inactive: > 100 µM
O=C(O)C1CC2C3CCC2C1C3=O (configuration not stated)	inactive: > 100 µM
CO/N=C(\C)CCC#Cc1ccccc1C(=O)OC	inactive: > 10 µM
CCOC(=O)C(C)c1nc2cc(N3CCOCC3)c(F)cc2[nH]c1=O (configuration not stated)	inactive: > 100 µM
C=CCNC(=O)/C(Cc1cc(Br)c(OC)c(Br)c1O)=N\O	inactive: 4.25 µM
C/C(=N/NC(=S)Nc1cccc(Cl)c1)c1cccc(/C(C)=N\NC(=S)Nc2cccc(Cl)c2)n1	inactive: 2.13 µM
Cc1ccc2c(c1C)C(=O)C1(C2)Cc2ccc3c(c2C1=O)CCC3 (configuration not stated)	inactive: > 100 µM
c1cnc2c(c1)-n1cccc1C1(CCSCC1)NN2	inactive: > 100 µM
COc1ccc(-c2c(C#N)c(NC(=S)NC(=O)c3ccccc3)nc3c2CCCC3)cc1OC	inactive: > 100 µM
C=C1c2[nH]c3c([N+](=O)[O-])c(OC)ccc3c2CCN1C(C)=O	inactive: 78.3 µM
O=S(O)CCCSSCCCCSSCCCS(=O)O	inactive: > 100 µM
CC(C)[C@@H]1NC(=O)[C@@H]2N=C(O[C@H]2C)[C@H](C(C)C)NC(=O)C2N=C1O[C@H]2C	inactive: > 100 µM
CC(=O)OC[C@]1(C)CCCC2(C)C1CCC1C=C(C)[C@H]3CCC12C3 (some centres not stated)	inactive: 47.8 µM
COc1ccc(C2Oc3cc(OC)c(O)c(C)c3[C@H]2C)cc1 (some centres not stated)	inactive: > 100 µM
COc1ccc(/C=C2\CCC(CCN(C)C)(C3=CCCC3)C2=O)cc1Br (configuration not stated)	inactive: 9.89 µM
Cc1ccc(C)c(NC(=O)c2cccc([N+](=O)[O-])c2O)c1	inactive: 21.2 µM

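96-well plates; 48 h exposure; 5 concentrations. Endpoints by linear interpolation between flanking doses. Not reached: highest tested concentration assigned. GI50: concentration for 50% inhibition of growth.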 Active and inactive are the calls of the source. Rule as the data show it: active = GI50 up to about 1.1 µM and inactive = higher.
